# Source: PubChem BioAssay (NCI)
#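 Growth conditions: 96-well plates. Treatment: test compound, 48 hours, 5 concentrations. Analysis: linear interpolation between bracketing concentrations; unreached endpoints set to highest concentration. The concentration for 50% growth inhibition is given as GI50. TGI denotes the concentration required for complete inhibition of growth.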
# Test system: NCI-H322M lung
# Assay: NCI anticancer screen, dose series, 48 h
SMILES,TGI,GI50
COc1cc([C@@H]2c3cc4c(cc3[C@@H](NC(=O)c3ccccc3)C3COC(=O)[C@@H]32)OCO4)cc(OC)c1O (stereo partly specified),> 100 µM,–
O=C(N/N=C\c1ccc2ccccc2c1)Nc1ccc([N+](=O)[O-])cc1,> 100 µM,–
COc1cc[n+](C)cc1,> 100 µM,–
COc1cc(/C=C/C(=O)c2sc(Nc3ccccc3)nc2C)ccc1O,> 100 µM,–
CC(C)CC1=[N+]=C(NC#N)N=C(CCC(=O)Nc2ccccc2[N+](=O)[O-])C1,> 100 µM,–
C[C@@H]1COCCN1c1cc(C2(S(C)(=N)=O)CC2)nc(-c2ccnc3[nH]ccc23)n1 (stereo partly specified),15.7 µM,1.85 µM
Clc1nc(Cl)c2ncn(Cc3ccc(COc4cccc(OCc5ccc(Cn6cnc7c(Cl)nc(Cl)nc76)cc5)c4)cc3)c2n1,47.3 µM,17.7 µM
O=C1C2=C(c3ccccc31)C(c1ccccc1)NC(=S)N2 (stereo unspecified),> 100 µM,–
CC(=O)Oc1ccc(O)c(O)c1C/C=C(\C)CC/C=C(\C)CC/C=C(\C)CCC=C(C)C,11.2 µM,–
